Measurements published in PubChem BioAssay AID1346428 (National Center for Advancing Translational Sciences (NCATS), 2018).
Out of some 48,000 compounds screened, about 1,200 (2.5%) were called active. Roughly 2% stayed inconclusive and do not appear here.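 How the source made its calls: active means activation of at least 60% and not above a set upper limit (about 1 call in 100 departs from these limits); inconclusive means activation of 40% to 60%, or above that upper limit; inactive means activation under 40%.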 Some of the results follow.
Further: 0% is about no effect.

What follows are molecules tested against Probable G-protein coupled receptor 32 (Homo sapiens) (UniProt O75388) (assay: qHTS for Agonists of Human Resolvin D1 Receptor DRV1). Details: CHO-K1 GPR32 beta-arrestin PathHunter luminescence, 90 min; at 76.9 µM; hits give high values; zero percent set by DMSO-only wells.
Sequence of UniProt O75388 (O75388 whole entry, looked up, the tested form may be a part): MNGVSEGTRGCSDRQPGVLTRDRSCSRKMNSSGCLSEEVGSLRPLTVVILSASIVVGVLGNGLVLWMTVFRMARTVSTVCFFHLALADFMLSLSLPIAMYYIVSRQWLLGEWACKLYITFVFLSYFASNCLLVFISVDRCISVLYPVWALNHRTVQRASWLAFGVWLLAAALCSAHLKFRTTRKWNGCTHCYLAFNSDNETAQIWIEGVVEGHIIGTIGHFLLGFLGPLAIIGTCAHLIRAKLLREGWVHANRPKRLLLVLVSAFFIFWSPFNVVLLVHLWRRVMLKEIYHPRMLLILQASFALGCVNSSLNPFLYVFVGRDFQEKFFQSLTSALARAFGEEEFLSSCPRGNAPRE
Method in brief: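 Agonism was scored by beta-Gal fragment complementation (chemiluminescent read, 1 h detection at ambient temperature) reporting beta-arrestin binding to GPR32 in engineered CHO-K1 cells. Compound treatment lasted 90 min at 37 C, normalized to a DMSO basal control.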
With `CCOc1ccc(CNC(=O)C2CCN(S(=O)(=O)c3ccc4c(ccn4C)c3)CC2)cc1` the activation was inactive: -14.1%.
For `COc1cc2oc(=O)c(CC(=O)NCc3ccc(OC)c(OC)c3)c(C)c2cc1Cl`, the activation was inactive: 24.7%.
`Cc1ccc(-c2noc(-c3ccc(N4CCCCC4C)c([N+](=O)[O-])c3)n2)cc1` (stereo not drawn) was tested, and the activation was inactive: 25.8%.
In the case of `CCCCn1c(=O)c2oc3ccccc3c2n(Cc2cccc(C)c2)c1=O`, the activation is reported as inactive: -3.67%.
`Cc1c(Cl)cccc1NC(=O)c1cc2sccc2n1Cc1ccc(F)cc1` was tested, and the activation was inactive: 0.0101%.
With `COc1ccc(N(C)C(=O)c2nc(-c3cccc(F)c3)n3c2CCCCC3)c(OC)c1` the activation was inactive: -23.3%.
For `Cc1ccccc1NC(=O)CSc1cn(CC(=O)N2CCCC2)c2ccccc12`, the activation was inactive: -15.7%.
`Cc1c(C(=O)Nc2ccc(-c3nc4cc(Cl)ccc4o3)cc2)oc2ccccc12` was tested, and the activation was inactive: -22.4%.
With `Cc1ccc(S(=O)(=O)N2CCc3cc(C(=O)NCCc4ccccc4)ccc32)cc1` the activation was inactive: -4.96%.
For `Cc1ccc(-c2cc(-c3coc4ccccc4c3=O)c3c(n2)-c2ccccc2OC3)cc1`, the activation was inactive: 0.759%.
For `Cc1c(-c2cccc(NC(=O)Nc3ccccc3)c2)nc2ncccn12`, the activation was active: 95.9%.
For `CCOc1ccc(NC(=O)CN2CCN(C3CCCCC3)C(=O)C2=O)cc1`, the activation was inactive: 17.4%.
For `CCS(=O)(=O)N1CCC2(CC1)OC(=O)C(C)=C2C(=O)NCc1ccccc1C`, the activation was inactive: -14.9%.
For `Cc1cc(-c2ccc(S(=O)(=O)NCc3ccccc3Cl)s2)on1`, the activation was inactive: 1.28%.
`COc1cccc(Cn2c(=O)cc(C)c3c(C)nn(-c4ccc(C)cc4)c32)c1` was tested, and the activation was inactive: -12.7%.
For `Cc1cccc(C(=O)N(Cc2ccco2)Cc2ccccc2F)c1`, the activation was inactive: -36%.
`CC1CCCCN1C(=O)CSc1n[nH]c(-c2ccccc2)n1` (stereo not drawn) was tested, and the activation was inactive: -3.36%.
In the case of `CC(=O)c1cccc(-n2c(=O)c3c4c(sc3n(CC(=O)c3ccc(Cl)cc3)c2=O)CN(C(C)=O)CC4)c1`, the activation is reported as inactive: -3.9%.
For `CCOc1cc(C(=O)Nc2ccc(-c3nc4cc(Cl)ccc4o3)cc2)cc(OCC)c1OCC`, the activation was inactive: -3.45%.
For `O=c1[nH]c(C2CCCN(S(=O)(=O)c3ccccc3Cl)C2)nc2c1nnn2Cc1ccc(OC(F)(F)F)cc1` (stereo not drawn), the activation was inactive: -6.9%.
`Cn1cc(C(=O)NCCc2ccc(Cl)cc2)c(=O)c2cc(S(=O)(=O)N3CCOCC3)ccc21` was tested, and the activation was inactive: -3.17%.
`COc1ccc(CNC(=O)CCCc2nnc3n(CCC(C)C)c(=O)c4sccc4n23)cc1` was tested, and the activation was inactive: -9.72%.
`O=C(Nc1cccc(Cl)c1)c1cc(-c2ccccc2)on1` was tested, and the activation was inactive: 18.3%.
`CCc1nn(CCCC(=O)N2CCN(c3ccc(OC)cc3)CC2)c(=O)c2cc3occc3n12` was tested, and the activation was inactive: 3.24%.
For `COc1ccc(CCNC(=O)c2ccc3c(c2)c(C)c(C)n3Cc2ccccc2)c(OC)c1OC`, the activation was inactive: -17.5%.
`Cc1ccc(CCNC(=O)C2CC(=O)N(CCc3ccccc3)C2)cc1` (stereo not drawn) was tested, and the activation was inactive: 1.07%.
For `Cc1cccc(N2CCN(C(=O)Cn3ncc4c3-c3ccccc3OC4)CC2)c1C`, the activation was inactive: 36.1%.
With `CCOc1ccc(Nc2ncnc3c2nc2n3CCCCC2)cc1` the activation was active: 85.1%.
With `COc1ccc(NC(=O)C2CCC(CNS(=O)(=O)c3ccc4c(c3)C(C)(C)C(=O)N4C)CC2)cc1` (stereo not drawn) the activation was inactive: -0.475%.
With `Cc1cc(CC(=O)O)c(C)n1-c1ccc(Cl)cc1` the activation was inactive: -0.454%.
`Cn1cnc(S(=O)(=O)N2CCC(C(=O)Nc3ccc(C#N)cc3)CC2)c1` was tested, and the activation was inactive: -11.6%.
`Clc1cccc(N2CCN(c3c4c(nc5nncn35)CCC4)CC2)c1` was tested, and the activation was inactive: 19.4%.
In the case of `N#Cc1ccccc1Cn1c(SCC(=O)Nc2ccc(F)cc2)nc2ccccc21`, the activation is reported as inactive: -0.201%.
In the case of `O=C(COc1ccccc1)Nc1ccc2nc(SCC(=O)N3CCc4ccccc43)sc2c1`, the activation is reported as inactive: -4.68%.
`CCOc1ccc(C(=O)Nc2onc3c2CCCC3)cc1` was tested, and the activation was inactive: 38.6%.
With `CCc1nnc(SCc2ccc(F)cc2Cl)c2cc3sc(C)cc3n12` the activation was inactive: -25.7%.
In the case of `CC(=O)c1ccc(NC(=O)c2nc(-c3ccccc3)n(-c3ccccc3Cl)n2)cc1`, the activation is reported as inactive: -9.34%.
With `COc1ccc(CNCCCSc2nnnn2C)c(OC)c1` the activation was inactive: -4.54%.
For `CCC(=O)N1CCc2cc(S(=O)(=O)NCCC(=O)Nc3ccc(C)cc3)ccc21`, the activation was inactive: 12.3%.
`CCCNC(=O)CCNS(=O)(=O)c1ccc2c(c1)c(=O)n(C)c(=O)n2C` was tested, and the activation was inactive: -20.8%.
For `CC(=O)c1ccc(NS(=O)(=O)c2cc(-c3cc(C)no3)ccc2C)cc1`, the activation was inactive: -5.6%.
In the case of `CC(=O)c1cccc(Nc2ccc3cc(S(=O)(=O)N4CCC(C)CC4)ccc3n2)c1`, the activation is reported as inactive: -0.129%.
For `O=C(COc1ccccc1-c1nnc(-c2ccccc2)o1)Nc1ccc(Br)cc1F`, the activation was inactive: 10.7%.
